{"source": "the supplement of paper PMC3724861", "note": "Some of the results follow.", "data": [{"test_system": "T1, Caupolican (Caup) homeodomain DNA-binding domain", "T1 sequence": "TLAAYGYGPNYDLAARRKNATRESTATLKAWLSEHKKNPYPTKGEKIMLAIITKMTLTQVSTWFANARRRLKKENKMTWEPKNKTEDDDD", "test": "PBM E-score (8-mer, recovered from the published 9-mer minima) (E-score (dimensionless, -0.5 to 0.5)); Drosophila protein; higher = stronger relative binding preference, active = 0.31 or more", "in_short": "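Caup's homeodomain DNA-binding domain (residues 214-303) was produced by in vitro transcription and translation and applied at 100 nM to custom-designed protein binding microarrays. Each value is an enrichment score giving relative binding preference for a short DNA word; higher means stronger. Published 9-mer scores were the minimum of their two constituent 8-mer scores, and the 8-mer values were recovered from those minima. A cutoff of 0.31 marks candidate binding sequences.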", "values": [{"sequence": "ATACTTGC", "PBM E-score": "inactive: 0.165"}, {"sequence": "GCGAGTAC", "PBM E-score": "inactive: 0.0649"}, {"sequence": "CCTCTAGA", "PBM E-score": "inactive: -0.109"}, {"sequence": "CTCTGCTC", "PBM E-score": "inactive: -0.135"}, {"sequence": "AGCTTAAT", "PBM E-score": "inactive: 0.012"}, {"sequence": "CGTTGAAG", "PBM E-score": "inactive: -0.0388"}, {"sequence": "ACAGGGGA", "PBM E-score": "inactive: 0.0363"}, {"sequence": "AGTCAGCA", "PBM E-score": "inactive: 0.028"}, {"sequence": "TACGTGGA", "PBM E-score": "inactive: -0.086"}, {"sequence": "CCTTGTCC", "PBM E-score": "inactive: 0.171"}, {"sequence": "GTCGATGA", "PBM E-score": "inactive: 0.0265"}, {"sequence": "GCGAGGTA", "PBM E-score": "inactive: -0.0513"}, {"sequence": "CGATCTGC", "PBM E-score": "inactive: -0.154"}, {"sequence": "GAATACTC", "PBM E-score": "inactive: 0.0382"}, {"sequence": "ACGTGGGG", "PBM E-score": "inactive: -0.178"}, {"sequence": "ATACGAGA", "PBM E-score": "inactive: 0.0776"}, {"sequence": "GACTGGGC", "PBM E-score": "inactive: -0.118"}, {"sequence": "ATACTTCC", "PBM E-score": "inactive: -0.0177"}, {"sequence": "CAACTGTC", "PBM E-score": "inactive: 0.034"}, {"sequence": "CCGAGGCC", "PBM E-score": "inactive: -0.223"}, {"sequence": "AAGTGGAT", "PBM E-score": "inactive: -0.0369"}, {"sequence": "AAACGTCT", "PBM E-score": "inactive: 0.098"}, {"sequence": "CGTTGTCA", "PBM E-score": "inactive: 0.251"}, {"sequence": "CTCCCGGC", "PBM E-score": "inactive: -0.196"}, {"sequence": "TTAGTCAA", "PBM E-score": "inactive: 0.0398"}, {"sequence": "ATGCTCGG", "PBM E-score": "inactive: -0.0911"}, {"sequence": "AGGTCAGA", "PBM E-score": "inactive: -0.0949"}, {"sequence": "GTATCTGA", "PBM E-score": "inactive: 0.137"}, {"sequence": "AGGTCATG", "PBM E-score": "inactive: 0.0878"}, {"sequence": "GATCTGTA", "PBM E-score": "inactive: 0.0986"}, {"sequence": "CGGGTGGC", "PBM E-score": "inactive: -0.215"}, {"sequence": "AGGCTTTG", "PBM E-score": "inactive: -0.163"}, {"sequence": "CCGTGACA", "PBM E-score": "inactive: 0.184"}, {"sequence": "ATACACCC", "PBM E-score": "inactive: 0.138"}, {"sequence": "TGAACGAA", "PBM E-score": "inactive: -0.0399"}, {"sequence": "CAAGTGAA", "PBM E-score": "inactive: 0.0592"}, {"sequence": "ACGACAGG", "PBM E-score": "≥ 0.164"}, {"sequence": "AGGTTCGC", "PBM E-score": "inactive: -0.174"}, {"sequence": "AATATGTA", "PBM E-score": "active: 0.328"}, {"sequence": "TAGAACGA", "PBM E-score": "≥ 0.134"}, {"sequence": "ACTCCGCC", "PBM E-score": "inactive: -0.169"}, {"sequence": "ACTCACCC", "PBM E-score": "inactive: -0.158"}, {"sequence": "CAACGGCG", "PBM E-score": "inactive: -0.182"}, {"sequence": "AGTGTTGC", "PBM E-score": "inactive: 0.143"}, {"sequence": "TAATCGCA", "PBM E-score": "inactive: 0.0941"}, {"sequence": "AGTCAGAG", "PBM E-score": "inactive: -0.0951"}, {"sequence": "AGCGTTGC", "PBM E-score": "inactive: -0.0725"}, {"sequence": "AAGAGAAG", "PBM E-score": "inactive: -0.0176"}, {"sequence": "TAAATGCA", "PBM E-score": "inactive: 0.0979"}, {"sequence": "CATCCCTC", "PBM E-score": "inactive: -0.0768"}, {"sequence": "ATCATTGG", "PBM E-score": "inactive: 0.0563"}, {"sequence": "TAATTAAA", "PBM E-score": "inactive: 0.191"}, {"sequence": "GGAGTCCA", "PBM E-score": "inactive: -0.104"}, {"sequence": "AGGCAGAT", "PBM E-score": "inactive: -0.00918"}, {"sequence": "CCTCCAGA", "PBM E-score": "inactive: -0.113"}, {"sequence": "AATGCGGT", "PBM E-score": "inactive: -0.0245"}, {"sequence": "AGGTTCCA", "PBM E-score": "inactive: -0.0398"}, {"sequence": "GGACTGTA", "PBM E-score": "inactive: 0.0655"}, {"sequence": "CGGCAAAC", "PBM E-score": "inactive: -0.0203"}, {"sequence": "ACATCGCT", "PBM E-score": "inactive: 0.178"}, {"sequence": "ACTCGGGG", "PBM E-score": "inactive: -0.124"}, {"sequence": "ACGAAGTA", "PBM E-score": "inactive: 0.0633"}, {"sequence": "AAAGTGTT", "PBM E-score": "inactive: 0.17"}, {"sequence": "GCTCAGGA", "PBM E-score": "inactive: -0.0793"}, {"sequence": "GGACCACA", "PBM E-score": "inactive: -0.0448"}, {"sequence": "CGTTTTAG", "PBM E-score": "inactive: -0.0741"}, {"sequence": "GATTTAGA", "PBM E-score": "inactive: -0.032"}, {"sequence": "CGCAACCG", "PBM E-score": "inactive: -0.152"}, {"sequence": "GACTTCGA", "PBM E-score": "inactive: -0.0675"}, {"sequence": "GCGAGTTA", "PBM E-score": "inactive: 0.00911"}, {"sequence": "CAGCTTCG", "PBM E-score": "inactive: -0.082"}, {"sequence": "ATAGTAAG", "PBM E-score": "inactive: 0.0934"}]}]}
